The values that follow come from paper PMC4336329 (PLoS ONE, 2015).

Screen size: about 310,000 compounds; about 2,200 (0.71%) showed an effect of 50% or more. Effects have a minus sign here. The list shows a part of the results.

The experiment deals with human ether-à-go-go-related gene (hERG) potassium channel (human, UniProt Q12809). The experiment in a line: primary screen, population patch clamp on CHO cells stably expressing hERG.
Chain of human ether-à-go-go-related gene (hERG) potassium channel (Q12809 whole entry, looked up): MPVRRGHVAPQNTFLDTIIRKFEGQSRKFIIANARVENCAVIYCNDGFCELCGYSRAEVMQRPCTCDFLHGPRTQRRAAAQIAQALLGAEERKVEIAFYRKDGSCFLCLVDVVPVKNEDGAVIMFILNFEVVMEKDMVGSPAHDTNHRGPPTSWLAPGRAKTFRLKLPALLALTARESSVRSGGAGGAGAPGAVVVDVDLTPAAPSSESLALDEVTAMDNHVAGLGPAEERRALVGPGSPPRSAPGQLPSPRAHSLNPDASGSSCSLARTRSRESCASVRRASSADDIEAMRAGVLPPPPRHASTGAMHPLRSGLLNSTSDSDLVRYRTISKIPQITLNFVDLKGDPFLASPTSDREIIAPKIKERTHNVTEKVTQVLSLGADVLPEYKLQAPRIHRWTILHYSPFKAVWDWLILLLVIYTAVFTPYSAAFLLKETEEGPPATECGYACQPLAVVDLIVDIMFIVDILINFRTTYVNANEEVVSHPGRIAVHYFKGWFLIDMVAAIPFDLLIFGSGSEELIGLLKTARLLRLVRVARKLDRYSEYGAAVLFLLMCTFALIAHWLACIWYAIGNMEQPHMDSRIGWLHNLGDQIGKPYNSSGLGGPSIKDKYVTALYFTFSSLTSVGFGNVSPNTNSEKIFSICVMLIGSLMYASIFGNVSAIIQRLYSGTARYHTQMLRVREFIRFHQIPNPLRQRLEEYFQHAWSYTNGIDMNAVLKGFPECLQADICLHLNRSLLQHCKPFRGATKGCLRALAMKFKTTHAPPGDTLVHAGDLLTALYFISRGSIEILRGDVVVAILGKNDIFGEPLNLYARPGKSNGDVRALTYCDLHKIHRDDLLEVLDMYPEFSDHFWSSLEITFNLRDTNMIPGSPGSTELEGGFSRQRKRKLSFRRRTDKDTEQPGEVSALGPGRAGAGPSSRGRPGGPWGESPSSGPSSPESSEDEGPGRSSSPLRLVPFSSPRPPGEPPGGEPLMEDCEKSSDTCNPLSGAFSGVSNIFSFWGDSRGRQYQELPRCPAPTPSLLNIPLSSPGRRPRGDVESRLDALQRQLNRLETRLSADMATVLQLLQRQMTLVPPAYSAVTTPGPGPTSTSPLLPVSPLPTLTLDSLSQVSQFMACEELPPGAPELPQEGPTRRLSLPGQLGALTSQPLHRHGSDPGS
Turning to `COc1ccc(N2CC(C(=O)NCc3ccco3)CC2=O)cc1` (stereo not drawn), the “hERG current change (%, negative = inhibition) at 1uM” value is 11.2%.

`Cc1noc(C)c1C(=O)NCc1ccccc1`: the “hERG current change (%, negative = inhibition) at 1uM” value is 17%.

In the case of `CN(C(=O)c1c[nH]c(=O)cc1C(F)(F)F)c1ccc(Cl)c(Cl)c1`, the “hERG current change (%, negative = inhibition) at 1uM” value was determined as 8.51%.

In the case of `CC1CN(Cc2ccccc2)c2nc3c(c(=O)n(CC(=O)O)c(=O)n3C)n2C1` (stereo not drawn), the “hERG current change (%, negative = inhibition) at 1uM” value was 18%.

As to `CN(C)S(=O)(=O)c1ccc(C(=O)OC2CCOC2=O)cc1` (stereo not drawn), the “hERG current change (%, negative = inhibition) at 1uM” value came to 12.8%.

For the compound `O=C(COc1ccc(F)cc1)c1ccc2c(c1)CCCC2`, the “hERG current change (%, negative = inhibition) at 1uM” value is on record as 14.5%.

With `C#C[C@]1(O)CC[C@H]2[C@@H]3CCC4=Cc5nc6nc7ccccc7n6cc5C[C@]4(C)[C@H]3CC[C@@]21C`, the “hERG current change (%, negative = inhibition) at 1uM” value is given as -9.33%.

As for `O=C(NO)c1ccccc1O`, the “hERG current change (%, negative = inhibition) at 1uM” value stood at 12.8%.

With `COc1ccc(C(=O)N/N=C/c2ccc(N3CCOCC3)o2)cc1OC`, the “hERG current change (%, negative = inhibition) at 1uM” value stood at 3.78%.

On to `Cc1ccc(/C=C2\CC(C)CC3=C2NC(=S)NC3c2ccc(C)cc2)cc1` (stereo not drawn), for which the “hERG current change (%, negative = inhibition) at 1uM” value was -7.34%.

`COC(=O)Nc1ccc(S(=O)(=O)NC2CCS(=O)(=O)C2)cc1` (stereo not drawn): the “hERG current change (%, negative = inhibition) at 1uM” value amounted to 15%.

As for `COc1ccccc1N1CCN(c2ncnc3sc(C)c(-c4ccccc4)c23)CC1`, the “hERG current change (%, negative = inhibition) at 1uM” value amounted to 15.1%.

Turning to `Cc1ccc(N2C(=O)c3n[nH]c(C)c3C2c2ccccn2)cc1` (stereo not drawn), the “hERG current change (%, negative = inhibition) at 1uM” value was determined as 7.52%.

Consider `CCOC(=O)C1=C(C)NC(=O)NC1c1cc(Br)c(O)c(OC)c1` (stereo not drawn), for which the “hERG current change (%, negative = inhibition) at 1uM” value is recorded as -1.87%.

With `O=[N+]([O-])c1cc([N+](=O)[O-])c(Oc2c(F)ccc(F)c2F)cc1NN1CCCCC1`, the “hERG current change (%, negative = inhibition) at 1uM” value is given as 12.8%.

Consider `COc1ccc([C@H]2CC(=O)C=C(c3cc(C=O)ccc3OC)C2)cc1`, for which the “hERG current change (%, negative = inhibition) at 1uM” value came to 10.4%.

`COc1ccc(C2N(C(=O)N(C)C)CCN2S(=O)(=O)c2ccc(OC)cc2)cc1` (stereo not drawn): the “hERG current change (%, negative = inhibition) at 1uM” value is on record as -2.39%.

On to `COc1cccc(-c2nnc(SCc3ccc(C#N)cc3)n2Cc2ccco2)c1`, for which the “hERG current change (%, negative = inhibition) at 1uM” value is listed as -22%.

With `COc1ccc(NS(=O)(=O)c2cccc(NC(=O)c3cnccn3)c2)cc1Br`, the “hERG current change (%, negative = inhibition) at 1uM” value is given as 10.3%.

With `Cc1ccc(NC(=O)c2cccc3c2C(=O)N(C2CCCCC2)C3)c(Cl)c1`, the “hERG current change (%, negative = inhibition) at 1uM” value is 10.4%.

As for `S=C(N/N=C1\CCc2ccccc21)NC1CCCCC1`, the “hERG current change (%, negative = inhibition) at 1uM” value stood at 12.4%.

Regarding `C/C(CCC1CC(C)(C)OC1=O)=N\NC(N)=S` (stereo not drawn), the “hERG current change (%, negative = inhibition) at 1uM” value was -0.472%.

As for `O=C(OCc1ccc(Cl)c(Cl)c1)c1ccccn1`, the “hERG current change (%, negative = inhibition) at 1uM” value was 5.25%.

In the case of `CCOC(=O)N1CCN(C(=O)CSCC(=O)Nc2nc(-c3ccc4c(c3)OCO4)cs2)CC1`, the “hERG current change (%, negative = inhibition) at 1uM” value is given as -5.62%.

For `Cc1cc(-c2ccccc2)nc(N(C)NC(=O)c2cccc(C(F)(F)F)c2)c1S(C)(=O)=O`, the “hERG current change (%, negative = inhibition) at 1uM” value was 7.36%.

In the case of `Cn1c(=O)c2c(nc(NCCCO)n2C/C=C/c2ccccc2)n(C)c1=O`, the “hERG current change (%, negative = inhibition) at 1uM” value came to 6.68%.

In the case of `COc1ccc(OC)c2sc(NC(=O)C3COc4ccccc4O3)nc12` (stereo not drawn), the “hERG current change (%, negative = inhibition) at 1uM” value is 0.426%.

For `COc1ccc(NC(=O)CCCN2C(=O)CCC2=O)cc1Cl`, the “hERG current change (%, negative = inhibition) at 1uM” value is listed as 9.43%.

Regarding `CCOC(=O)C1CCN(CC(=O)Nc2ccc(OC)c(Cl)c2)CC1`, the “hERG current change (%, negative = inhibition) at 1uM” value was -2.11%.

In the case of `CCCCN(C(=O)NC(=O)Nc1cc(C)ccc1C)S(C)(=O)=O`, the “hERG current change (%, negative = inhibition) at 1uM” value is on record as 13.9%.

Turning to `Cc1ccn2c(=O)nc(SCC(=O)Nc3cc(C)on3)nc2c1`, the “hERG current change (%, negative = inhibition) at 1uM” value is 1.05%.

For `O=C(COC(=O)c1ccc(Br)o1)Nc1cccc(S(=O)(=O)N2CCCCCC2)c1`, the “hERG current change (%, negative = inhibition) at 1uM” value is reported as 2.14%.

With `Cc1c(-c2nc(-c3ccncc3)no2)cccc1[N+](=O)[O-]`, the “hERG current change (%, negative = inhibition) at 1uM” value is reported as 16.2%.

In the case of `CC(CN1CCOCC1)OC(=O)c1ccc2c(c1)OCCO2.Cl` (stereo not drawn), the “hERG current change (%, negative = inhibition) at 1uM” value turned out to be 2.72%.

On to `O=C(NCCCn1ccnc1)c1c(F)cccc1F`, for which the “hERG current change (%, negative = inhibition) at 1uM” value came out at 13.9%.

Regarding `Cc1cc(C)n2nc(SCC(=O)Nc3c(C)nn(-c4ccccc4)c3C)nc2n1`, the “hERG current change (%, negative = inhibition) at 1uM” value was determined as 8.62%.

Take `Cc1c(CC(Cl)(Cl)Cl)c2c(n1O)CC(C)(C)CC2=O`: the “hERG current change (%, negative = inhibition) at 1uM” value turned out to be 6.51%.

For the compound `CS(=O)(=O)N1CCN(C(=O)C(Sc2ccccc2)c2ccccc2)CC1` (stereo not drawn), the “hERG current change (%, negative = inhibition) at 1uM” value is recorded as -4.86%.

For `Cc1cccc(N(Cc2ccccc2)C(=O)c2cc(S(=O)(=O)N3CCOCC3)ccc2F)c1`, the “hERG current change (%, negative = inhibition) at 1uM” value worked out at 12.3%.

Consider `COc1cccc(NC(=O)C2C3CC4OC(=O)C2C4C3)c1` (stereo not drawn), for which the “hERG current change (%, negative = inhibition) at 1uM” value amounted to 13.8%.

On to `Cc1ccc(NC(=O)CCNS(=O)(=O)c2ccc3[nH]c(=O)oc3c2)c(Cl)c1`, for which the “hERG current change (%, negative = inhibition) at 1uM” value is reported as 8.46%.

`CC1(C)CC(=O)c2c(O)cc(OCc3ccc(Br)cc3)cc2O1`: the “hERG current change (%, negative = inhibition) at 1uM” value was found to be 10.5%.

With `COc1ccc(N2CC(O)=C(c3nc4ccccc4s3)C2=N)cc1`, the “hERG current change (%, negative = inhibition) at 1uM” value was found to be 6.79%.

In the case of `COc1ccc(Cl)cc1C(=O)Nc1ccccc1N1CCN(C)CC1`, the “hERG current change (%, negative = inhibition) at 1uM” value was -70.4%.

With `CC(NC(=O)c1cccc(N(C)C)c1)c1ccc(-n2ccnc2)cc1` (stereo not drawn), the “hERG current change (%, negative = inhibition) at 1uM” value is reported as -37.9%.
